Test results as given in patent publication US20140162936A1 (COVAGEN, published 2014).

T1: human chymase (EC 3.4.21.39) having SEQ ID NO: 16 (human, UniProt P23946 22-247, biotinylated with EZ-link sulfo-NHS-SS-biotin, 3 biotin molecules per chymase molecule (ELISA and SPR))
T1 construct: Produced as described in Perspicace et al. 2009; It was biotinylated for ELISA and SPR; also called biotinylated chymase
T1 sequence: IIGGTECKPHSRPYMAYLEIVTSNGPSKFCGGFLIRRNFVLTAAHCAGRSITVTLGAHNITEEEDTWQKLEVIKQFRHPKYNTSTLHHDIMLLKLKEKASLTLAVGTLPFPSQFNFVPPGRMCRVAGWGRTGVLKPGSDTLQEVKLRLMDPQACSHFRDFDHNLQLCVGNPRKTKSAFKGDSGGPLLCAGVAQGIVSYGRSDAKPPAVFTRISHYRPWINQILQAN


Columns and labels:
[1] = target: biotinylated bovine serum albumin (BSA) (bovine, UniProt P02769, biotinylated with EZ-link sulfo-NHS-SS-biotin); test: ELISA: biotinylated BSA (100 nM) on streptavidin-coated wells, purified Fyn SH3-derived polypeptide at 200 nM, detection by anti-myc 9E10 and anti-mouse IgG HRP
Chain of UniProt P02769 (P02769 25-607 limits assumed): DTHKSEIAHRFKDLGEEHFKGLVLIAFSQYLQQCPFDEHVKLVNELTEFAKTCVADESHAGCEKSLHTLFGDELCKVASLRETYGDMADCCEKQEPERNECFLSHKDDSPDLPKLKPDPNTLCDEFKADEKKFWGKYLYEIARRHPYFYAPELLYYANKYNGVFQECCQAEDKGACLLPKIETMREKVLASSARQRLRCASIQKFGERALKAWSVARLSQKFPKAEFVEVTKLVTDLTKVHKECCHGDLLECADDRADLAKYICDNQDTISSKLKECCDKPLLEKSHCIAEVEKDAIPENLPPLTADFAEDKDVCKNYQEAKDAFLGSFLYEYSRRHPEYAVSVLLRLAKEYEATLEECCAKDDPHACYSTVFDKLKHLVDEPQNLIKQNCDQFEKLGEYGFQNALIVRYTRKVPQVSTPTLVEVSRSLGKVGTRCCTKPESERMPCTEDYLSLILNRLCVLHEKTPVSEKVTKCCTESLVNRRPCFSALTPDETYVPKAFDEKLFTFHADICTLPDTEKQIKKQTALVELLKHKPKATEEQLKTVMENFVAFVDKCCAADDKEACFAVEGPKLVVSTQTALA

[2] = target: T1, human chymase (EC 3.4.21.39) having SEQ …; test: monoclonal ELISA, bacterial lysate supernatant on biotinylated chymase
[3] = target: T1, human chymase (EC 3.4.21.39) having SEQ …; test: SPR, BIAcore 3000, biotinylated chymase on SA chip, monomeric polypeptide injected
[4] = target: T1, human chymase (EC 3.4.21.39) having SEQ …; test: cell-based or functional assay

| Binder | binding result [1] | further results |
| --- | --- | --- |
| Fyn SH3-derived polypeptide A4 (SEQ ID NO: 4) (designed binder, Monomeric by SEC; also called Fynomer; not shown: C-terminal myc and hexa his tag from vector pQE-12) GVTLFVALYDYQADRWTDLSFHKGEKFQILDASPPGDWWEARSLTTGETGYIPSNYVAPVDSIQ | no binding (tested: 200 nM) | – |
| Fyn SH3-derived polypeptide H11 (SEQ ID NO: 11) (designed binder, not shown: C-terminal myc and hexa his tag from vector pQE-12) GVTLFVALYDYKAQRWTDLSFHKGEKFQILQAHQKTGDWWEARSLTTGETGLIPSNYVAPVDSIQ | – | binding result [2]: binds |
| Fyn SH3-derived polypeptide F12 (SEQ ID NO: 5) (designed binder, Monomeric by SEC; not shown: C-terminal myc and hexa his tag from vector pQE-12) GVTLFVALYDYRAERSTDLSFHKGEKFQILDMTVPNGDWWEARSLTTGETGYIPSNYVAPVDSIQ | no binding (tested: 200 nM) | – |
| Fyn SH3-derived polypeptide H2 (SEQ ID NO: 8) (designed binder, Monomeric by SEC; not shown: C-terminal myc and hexa his tag from vector pQE-12) GVTLFVALYDYQADRWTDLSFHKGEKFQILRFDIGDWWEARSLTTGETGYIPSNYVAPVDSIQ | no binding (tested: 200 nM) | – |
| Fyn SH3-derived polypeptide B5 (SEQ ID NO: 3) (designed binder, Monomeric by SEC; also called Fynomer; not shown: C-terminal myc and hexa his tag from vector pQE-12) GVTLFVALYDYNATRWTDLSFHKGEKFQILDGDSGDWWEARSLTTGETGYIPSNYVAPVDSIQ | no binding (tested: 200 nM) | – |
| Fyn SH3-derived polypeptide E5 (SEQ ID NO: 13) (designed binder, not shown: C-terminal myc and hexa his tag from vector pQE-12) GVTLFVALYDYKAQRWLDLSFHEGEKFQILSTDSGDWWEARSLTTGETGYIPSNYVAPVDSIQ | – | binding result [2]: binds |
| Fyn SH3-derived polypeptide E4 (SEQ ID NO: 2) (designed binder, Monomeric by SEC; also called Fynomer; not shown: C-terminal myc and hexa his tag from vector pQE-12) GVTLFVALYDYNATRWTDLSFHKGEKFQILEFGPGDWWEARSLTTGETGYIPSNYVAPVDSIQ | no binding (tested: 200 nM) | Kd [3]: 0.9 nM; koff [3]: 0.00066 s⁻¹; IC50 values for inhibition of chymase activity [4]: 2 nM |

Further lines, with some results ahead:

| binding result [1] | Binder | further results |
| --- | --- | --- |
| no binding (tested: 200 nM) | Fyn SH3-derived polypeptide E3 (SEQ ID NO: 9) (designed binder, Monomeric by SEC; not shown: C-terminal myc and hexa his tag from vector pQE-12) GVTLFVALYDYQADRWTDLSFHKGEKFQILNASGPGDWWEARSLTTGETGYIPSNYVAPVDSIQ | – |
| no binding (tested: 200 nM) | Fyn SH3-derived polypeptide G2.3 (SEQ ID NO: 6) (designed binder, Monomeric by SEC; not shown: C-terminal myc and hexa his tag from vector pQE-12) GVTLFVALYDYNATRWTDLSFHKGEKFQILDWTTANGDWWEARSLTTGETGYIPSNYVAPVDSIQ | – |
| no binding (tested: 200 nM) | Fyn SH3-derived polypeptide D7 (SEQ ID NO: 7) (designed binder, Monomeric by SEC; not shown: C-terminal myc and hexa his tag from vector pQE-12) GVTLFVALYDYQADRWTDLSFHKGEKFQILSFHVGDWWEARSLTTGETGYIPSNYVAPVDSIQ | – |
